Data on six compounds can be found in patent publication US20150051171A1, “TETRAZOLINONE COMPOUNDS AND ITS USE AS PESTICIDES” (SUMITOMO CHEMICAL COMPANY, LIMITED, priority 2012, published 2015).

Format in all cases: in vivo
Assay [1] relates to wheat rust fungi (Puccinia recondita). As to the kind of experiment: Wheat rust control on wheat, foliar spray after inoculation (Test Example 7). To be noted: 200 ppm foliar spray 1 day after inoculation, wheat (cv; Shirogane), observed after 8 days. As to the method:
Thereafter, to the wheat were sprinkling-inoculated the spores of wheat rust fungi (Puccinia recondita). The wheat was placed under a dark and humid condition at 23° C. for 1 day and was air-dried.

In assay [2] the test system is tomato late blight fungi (Phytophthora infestans). Particulars: tomato (cv; Patio), inoculated after drying.
The test system of assay [3] is wheat leaf blotch fungi (Septoria tritici). As to the kind of experiment: Wheat leaf blotch control on wheat, foliar spray before inoculation (Test Examples 13-15). To be noted: 50 ppm foliar spray, wheat (cv; Apogee), inoculated 4 days after spraying.
Assay [4] relates to powdery mildew fungi (Sphaerotheca fuliginea). As to the kind of experiment: Cucumber powdery mildew control, foliar spray before inoculation (Test Examples 17-19). To be noted: 50 ppm foliar spray, cucumber (cv; Sagamihanjiro), observed 8 days after inoculation.
Assay [5] concerns barley net blotch fungi (Pyrenophora teres). The assay is described as follows: Barley net blotch control on barley, foliar spray before inoculation (Test Examples 8-10, Comparative Test Example). Particulars: 50 ppm foliar spray, barley (cv; Mikamo Golden), inoculated 2 days after spraying.

Where two headings read alike, the source gives them in different places.

On to `Cc1cccc(-n2nnn(C)c2=O)c1COc1ccn(-c2ccc(Cl)cc2)n1` [Present compound 12, 1-(2-{[1-(4-chlorophenyl)-1H-pyrazole-3-yl]oxymethyl}-3-methylphenyl)-4-methyl-1,4-dihydrotetrazole-5-one], for which the “lesion area compared to the lesion area in untreated plants” value (from here on “lesion area compared to the lesion area”) in assay [1] and in assay [2] (50 ppm foliar spray (flowable)) was ≤ 30% throughout.

Regarding `CSc1ccc(-n2ccc(OCc3c(C)cccc3-n3nnn(C)c3=O)n2)cc1` [Present compound 19, 1-(2-{[1-(4-methylthiophenyl)-1H-pyrazole-3-yl]oxymethyl}-3-methylphenyl)-4-methyl-1,4-dihydrotetrazole-5-one], in assay [3], the “lesion area compared to the lesion area” value is on record as ≤ 30%.

Consider `COc1cccc(-n2nnn(C)c2=O)c1COc1ccn(-c2ccc(Cl)cc2)n1` [Present compound 26, 1-(2-{[1-(4-chlorophenyl)-1H-pyrazole-3-yl]oxymethyl}-3-methoxyphenyl)-4-methyl-1,4-dihydrotetrazole-5-one], for which, in assay [2] (200 ppm foliar spray (flowable)), the “lesion area compared to the lesion area” value was ≤ 30%.

With `Cn1nnn(-c2cccc(C3CC3)c2COc2ccn(-c3ccc(Cl)cc3)n2)c1=O` [Present compound 34, 1-(2-{[1-(4-chlorophenyl)-1H-pyrazole-3-yl]oxymethyl}-3-cyclopropylphenyl)-4-methyl-1,4-dihydrotetrazole-5-one], in assay [4], the “lesion area compared to the lesion area” value was ≤ 30%.

Consider `C/C=C/c1cccc(-n2nnn(C)c2=O)c1COc1ccn(-c2ccc(Cl)cc2)n1` [Present compound 35, 1-(2-{[1-(4-chlorophenyl)-1H-pyrazole-3-yl]oxymethyl}-3-(1-propenyl)phenyl)-4-methyl-1,4-dihydrotetrazole-5-one], for which, in assay [5], the “lesion area compared to the lesion area” value is listed as ≤ 30%.

On to `Cn1nnn(-c2ccccc2COc2ccn(-c3ccc(F)cc3)n2)c1=O` [control compound, 1-(2-{[1-(4-fluorophenyl)-1H-pyrazole-3-yl]oxymethyl}phenyl)-4-methyl-1,4-dihydrotetrazole-5-one, reference compound], for which, in assay [5], the “lesion area compared to the lesion area” value is listed as ≥ 70%.
